# Data published in the supplement of paper PMC10369915.
# This is one part of the list. Rule as the data show it: active = 3.2 or more and inactive = the rest. The signal is at background level for most entries.
# Columns and labels:
# Assay in all cases: enrichment score (SH2-bound / input frequency) (ratio); bacterial display of known human phosphotyrosine sites (pTyr-Var adds point mutants) read by sequencing; higher = stronger binding; tyrosines were phosphorylated by kinases first
# Conditions in all cases: peptide library: pTyr-Var
# [1] = target: SHP2 C-SH2 domain E139D
# [2] = target: SHP2 C-SH2 domain wild-type
# [3] = target: SHP2 N-SH2 domain L43F
# [4] = target: SHP2 N-SH2 domain T42A
# [5] = target: SHP2 N-SH2 domain T52S
# [6] = target: SHP2 N-SH2 domain wild-type
# 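Also: displayed peptides selected on beads carrying the immobilized SH2 domain, with library peptides lacking any tyrosine serving as negative controls.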
Binder,enrichment score [1],enrichment score [2],enrichment score [3],enrichment score [4],enrichment score [5],enrichment score [6]
DEDYLCREELA [POR_Y575_Y575C],inactive: 0.679,inactive: 0.965,inactive: 0.57,inactive: 0.63,inactive: 0.766,inactive: 0.943
RGRKVYLEGGF [PRIM2_Y201_D204G],inactive: 0.256,inactive: 0.342,inactive: 0.337,inactive: 0.231,inactive: 0.281,inactive: 0.292
GGFTCYCDGKK [PROS1_Y266_YF],inactive: 1.35,inactive: 1.53,inactive: 1.29,inactive: 1.01,inactive: 1.04,inactive: 1.47
EDKSIYRRGAR [PRKCI_Y125],inactive: 0.38,inactive: 0.256,inactive: 0.204,inactive: 0.239,inactive: 0.218,inactive: 0.231
LFMGDYVDRGF [PPP2CA_Y86_YF],inactive: 1.45,inactive: 1.39,inactive: 1.11,inactive: 1.43,inactive: 1.11,inactive: 1.22
LLVVLCKFRCF [PSEN1_Y154_Y154C_YF],inactive: 2.4,inactive: 2.63,inactive: 2.43,inactive: 1.81,inactive: 2.32,inactive: 2.52
KVALPYKPFFF [POLE_Y100_YF],inactive: 1.53,inactive: 1.51,inactive: 1.36,inactive: 1.29,inactive: 1.6,inactive: 1.42
LRRREYQRQDY [PRKRIP1_Y90],inactive: 0.316,inactive: 0.261,inactive: 0.324,inactive: 0.347,inactive: 0.371,inactive: 0.313
FGGTVYHSPVS [PRC1_Y511],inactive: 1.04,inactive: 1.55,inactive: 0.942,inactive: 1.09,inactive: 0.82,inactive: 1.08
QISRDYGVLLE [PRDX3_Y172],inactive: 0.518,inactive: 0.783,inactive: 0.696,inactive: 0.634,inactive: 0.723,inactive: 0.681
RNIQQCNSFVS [PRKAR1A_Y373_Y373C],inactive: 0.664,inactive: 0.693,inactive: 0.665,inactive: 0.596,inactive: 0.687,inactive: 0.787
KGRGEYSAIKA [PRKCD_Y374_F375S],inactive: 1.11,inactive: 1.66,inactive: 0.832,inactive: 0.925,inactive: 0.974,inactive: 0.785
KVALLYKPYFY [POLE_Y100_P99L],inactive: 2.96,active: 3.27,active: 3.45,active: 3.28,inactive: 2.85,active: 3.48
KCCCIYEKPRS [PPP1R11_Y64_A69S],inactive: 0.93,inactive: 1.09,inactive: 0.935,inactive: 0.759,inactive: 0.982,inactive: 1.17
LFMGDYVDRGY [PPP2CA_Y86],inactive: 1.72,inactive: 1.51,inactive: 1.42,inactive: 1.15,inactive: 1.43,inactive: 1.59
DAPVVYLGSFG [PRAG1_Y132_R137G],inactive: 0.773,inactive: 1.99,inactive: 0.896,inactive: 2.65,inactive: 0.858,inactive: 0.963
GGYTCYSDGKK [PROS1_Y266_C267S],inactive: 0.895,inactive: 1.41,inactive: 0.983,inactive: 0.88,inactive: 1.07,inactive: 1.12
LRGEDYGFSVD [PRKCI_Y430],inactive: 0.816,inactive: 0.975,inactive: 0.865,inactive: 0.6,inactive: 0.766,inactive: 1.04
NVTGHYISPFH [PPA2_Y59],inactive: 1.24,inactive: 0.895,active: 9.62,active: 5.58,active: 10.4,active: 4.74

Binder,enrichment score [1],enrichment score [2],enrichment score [3],enrichment score [4],enrichment score [5],enrichment score [6]
ETEMLYGSAPR [PRC1_Y464],inactive: 0.693,inactive: 0.5,inactive: 0.581,inactive: 0.542,inactive: 0.537,inactive: 0.601
QLCVSYPGGYT [PROS1_Y259_N258S],inactive: 0.766,inactive: 1.1,inactive: 0.894,inactive: 0.7,inactive: 0.716,inactive: 0.941
TTTQAYRVNER [PRKN_Y391_D394N],inactive: 0.658,inactive: 0.518,inactive: 0.561,inactive: 0.523,inactive: 0.552,inactive: 0.787
LNAGAYSKVVE [PPT1_Y172_Q177E],inactive: 0.763,inactive: 0.901,inactive: 0.833,inactive: 0.602,inactive: 0.647,inactive: 0.608
RRMLQYLTVND [PPFIBP2_Y663],inactive: 0.574,inactive: 0.457,inactive: 0.833,inactive: 0.823,inactive: 0.852,inactive: 0.665
GNYSGYDDAWD [POLR1C_Y36],inactive: 0.612,inactive: 0.56,inactive: 0.7,inactive: 0.645,inactive: 0.564,inactive: 0.572
REIIAYQPYGK [PRKCG_Y529_P524R],inactive: 0.857,inactive: 0.995,inactive: 0.805,inactive: 0.775,inactive: 0.724,inactive: 0.781
VVEFGYEFFAK [PPP1CB_Y254_D252Y_YF],inactive: 1.58,inactive: 1.04,inactive: 1.54,inactive: 1.42,inactive: 1.25,inactive: 1.09
FDAHIYEGCVI [PRKCD_Y64_R67C],inactive: 0.826,inactive: 1.22,inactive: 0.89,inactive: 0.72,inactive: 0.768,inactive: 1.39
LGPSDYFGEIA [PRKAR1A_Y323],inactive: 0.709,inactive: 0.77,inactive: 0.714,inactive: 0.717,inactive: 0.904,inactive: 0.869
YENGEYIVRQG [PRKG1_Y247_I249V],inactive: 2.33,inactive: 1.76,inactive: 2.26,inactive: 2.07,inactive: 2.45,inactive: 2.32
IGRGSYAKVLL [PRKCZ_Y263],inactive: 1.91,active: 4.15,inactive: 2.33,active: 4.06,inactive: 2.37,inactive: 1.22
VVEYGYEFFAK [PPP1CB_Y254_D252Y],inactive: 1.4,inactive: 1.66,inactive: 1.37,inactive: 1.48,inactive: 1.17,inactive: 1.44
FEPWVYSFSFE [PRKDC_Y647_YF],inactive: 1.05,inactive: 0.994,inactive: 1.37,inactive: 1.22,inactive: 1.16,inactive: 1.54
LLVVLYKYRCY [PSEN1_Y154],inactive: 2.89,inactive: 2.95,inactive: 2.39,inactive: 1.75,active: 3.96,inactive: 2.74
EDKSIYRRGAC [PRKCI_Y125_R130C],inactive: 0.422,inactive: 0.486,inactive: 0.473,inactive: 0.437,inactive: 0.499,inactive: 0.562
FDAHIYEGRVI [PRKCD_Y64],inactive: 1.02,inactive: 0.84,inactive: 0.969,inactive: 0.907,inactive: 0.9,inactive: 0.853
FEPWVYSLSYE [PRKDC_Y647_F649L],inactive: 0.818,inactive: 0.733,inactive: 1.29,inactive: 0.867,inactive: 1.39,inactive: 0.776
